PubChem BioAssay AID2202238 (Ras Initiative Chemistry Research Team, Frederick National …, 2025)
The other results are listed elsewhere or left out. These are further read-outs of the screen, such as a control signal, another cell line or another target. No call is given for them.

Molecular target: GTPase KRas (Homo sapiens) (UniProt P01116)
Assay: Cysteine mutants labelled by reactive fragments (mass read-out) (AID 2202238)
Design: protein at 5 µM with 500 µM competing thiol for 1.5 h
Conditions: KRAS G12D cysteine mutants, disulfide tethering, MALDI-TOF labeling, stronger effect = higher value, fragment at 500 µM
[1] = measured here: G60C mutant labeling
[2] = measured here: G75C mutant labeling
[3] = measured here: H94C mutant labeling
[4] = measured here: I36C mutant labeling
[5] = measured here: L120C mutant labeling
[6] = measured here: M67C mutant labeling
[7] = measured here: M72C mutant labeling
[8] = measured here: N26C mutant labeling
[9] = measured here: N86C mutant labeling
[10] = measured here: P121C mutant labeling
[11] = measured here: S122C mutant labeling
[12] = measured here: S136C mutant labeling

Sequence of UniProt P01116 (P01116 whole entry, looked up, the tested form may be a part): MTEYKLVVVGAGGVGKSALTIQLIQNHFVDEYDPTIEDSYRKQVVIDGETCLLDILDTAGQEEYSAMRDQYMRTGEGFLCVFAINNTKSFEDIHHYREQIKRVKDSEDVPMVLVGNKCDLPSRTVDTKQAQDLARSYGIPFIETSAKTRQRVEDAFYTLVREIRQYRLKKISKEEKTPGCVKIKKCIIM

SMILES	percent labeling [1]	percent labeling [2]	percent labeling [3]	percent labeling [4]	percent labeling [5]	percent labeling [6]	percent labeling [7]	percent labeling [8]	percent labeling [9]	percent labeling [10]	percent labeling [11]	percent labeling [12]
O=C(NCCS)C1CCN1C1CCCC1 (configuration not stated)	37.2%	22.4%	39.4%	29.6%	26.2%	31.3%	23.3%	34.7%	24.8%	26%	26.5%	41.8%
CC1(C(=O)NCCS)CCCN(C(=O)c2ccccc2)C1 (configuration not stated)	38.9%	16.4%	44.7%	30.5%	37.2%	43.3%	35.9%	38.7%	28.9%	35.5%	35.5%	56.1%
COc1cc(N2CCN(C(=O)CCS)CC2)ccc1O	–	22%	14.9%	19.2%	12.4%	16.3%	4.9%	–	18.8%	20.8%	14.7%	56.8%
COc1ccc2c(c1)CCC(C(=O)NCCS)C2 (configuration not stated)	37.6%	12.7%	18.8%	14.9%	14.6%	17.4%	32%	36.9%	16.8%	18.3%	14.9%	25.5%
N#Cc1cc2c([nH]c1=O)CCN(C(=O)CCS)C2	–	11.6%	25.6%	44.4%	28.9%	34.5%	24.3%	–	31.4%	28.9%	33.6%	61.7%
COc1cc2ccccc2c(NC(=O)CCS)n1	–	17.3%	20.1%	15.1%	11.8%	8.4%	54.6%	–	14.8%	13.7%	7.9%	33.9%
CCc1cc(OC)c(CC2(NC(=O)CCS)CC2)cc1OC	–	11.7%	27.6%	25.1%	14.6%	26.1%	27.3%	–	19.7%	20.5%	16.5%	42.6%
O=C(NCCS)C1CC=CCC1C(=O)NC1CC1 (configuration not stated)	21.3%	6.9%	24.3%	14.4%	30.3%	16.7%	11.1%	21.9%	19.4%	25.8%	22.3%	29.7%
O=C(Nc1ccc(F)cc1)NC1CCN(C(=O)CCS)CC1	–	10.1%	24.9%	34.1%	18.6%	28.7%	17.9%	–	17.6%	20.9%	20.6%	37.8%
CC1(CC2CCCN2C(=O)CCS)NC(=O)NC1=O (configuration not stated)	–	8.5%	35.1%	34.7%	29.6%	40.5%	15.3%	–	31.8%	31.7%	38.4%	57.7%
O=C1CC(C(=O)NCCS)c2ccc(F)cc2N1 (configuration not stated)	50.5%	19.6%	40.7%	32.6%	48.6%	35.6%	39%	44.3%	28.6%	33.3%	34.7%	44.7%
COc1ccc(CCC(=O)NCCS)cc1Cl	50.4%	16.8%	21.5%	23.6%	27.6%	24.7%	37.3%	35.2%	17.3%	25.5%	20.7%	31.6%
O=C(NCCS)[C@@H]1C[C@]12CCOc1ccc(Cl)cc12	31.5%	9.3%	13.9%	12.7%	16.5%	14.7%	26%	26.8%	10.9%	21.7%	10.9%	19%
Cc1nc2ncc(C(=O)NCCS)cc2[nH]1	29%	18.5%	28.2%	23.8%	27.7%	32.1%	33.4%	44%	32.6%	24%	29.1%	48%
O=C(CC(c1ccc(Cl)c(Cl)c1)N1CCOCC1)NCCS (configuration not stated)	61.1%	26.3%	36.1%	29.4%	31.4%	49.2%	45.9%	40.1%	18.6%	28.2%	22.5%	44.4%
O=C(NCCS)C1CCCN1C(=O)c1cncn1-c1ccccc1 (configuration not stated)	28.9%	14.5%	31.2%	28%	26.9%	30.2%	15.6%	27.2%	18.3%	31.4%	23%	42.7%
O=C(NCCS)c1cc(Nc2ccccc2)ncn1	8.6%	8%	8.9%	9.7%	12.5%	12.3%	28.6%	21.1%	5.5%	9.3%	8.5%	17.7%
Cn1nc(NC(=O)CCS)cc1CN1CCOCC1	–	11.8%	33.1%	36.8%	40.5%	36%	24.6%	–	23.1%	31.6%	35.6%	46.3%
O=C(CCS)NCC(=O)N1CCc2sccc2C1	–	11.5%	31.4%	33.2%	39.2%	39.8%	35.8%	–	31.8%	34.5%	32.2%	53.1%
O=C(CCS)NC1(c2nc(C3CC3)cc(=O)[nH]2)CCCCC1	–	11.2%	35.3%	31.3%	21.8%	30.2%	45.3%	–	21.5%	26.3%	21.1%	42.1%
O=C(CCS)NC1CC2(C1)NC(=O)NC2=O (configuration not stated)	–	23.4%	35.5%	30.1%	27%	26.4%	15.5%	–	39.4%	35.8%	44.9%	47.3%
Cc1csc(N(CCc2ccccc2)C(=O)CCS)n1	–	25.1%	19.7%	19.8%	14.3%	15.1%	36.8%	–	14.2%	16.6%	9.5%	38.3%
Cn1ccn2ncc(CNC(=O)CCS)c2c1=O	–	17.4%	28%	47.8%	31.3%	49.6%	26.5%	–	36.9%	38.1%	45.6%	63.3%
